To fix the notation:
B1: FIP3, pGADGH/FIP3 two-hybrid prey (protein, UniProt O75154 1-756)
chain: MASAPPASPPGSEPPGPDPEPGGPDGPGAAQLAPGPAELRLGAPVGGPDPQSPGLDEPAPGAAADGGARWSAGPAPGLEGGPRDPGPSAPPPRSGPRGQLASPDAPGPGPRSEAPLPELDPLFSWTEEPEECGPASCPESAPFRLQGSSSSHRARGEVDVFSPFPAPTAGELALEQGPGSPPQPSDLSQTHPLPSEPVGSQEDGPRLRAVFDALDGDGDGFVRIEDFIQFATVYGAEQVKDLTKYLDPSGLGVISFEDFYQGITAIRNGDPDGQCYGGVASAQDEEPLACPDEFDDFVTYEANEVTDSAYMGSESTYSECETFTDEDTSTLVHPELQPEGDADSAGGSAVPSECLDAMEEPDHGALLLLPGRPHPHGQSVITVIGGEEHFEDYGEGSEAELSPETLCNGQLGCSDPAFLTPSPTKRLSSKKVARYLHQSGALTMEALEDPSPELMEGPEEDIADKVVFLERRVLELEKDTAATGEQHSRLRQENLQLVHRANALEEQLKEQELRACEMVLEETRRQKELLCKMEREKSIEIENLQTRLQQLDEENSELRSCTPCLKANIERLEEEKQKLLDEIESLTLRLSEEQENKRRMGDRLSHERHQFQRDKEATQELIEDLRKQLEHLQLLKLEAEQRRGRSSSMGLQEYHSRARESELEQEVRRLKQDNRNLKEQNEELNGQIITLSIQGAKSLFSTAFSESLAAEISSVSRDELMEAIQKQEEINFRLQDYIDRIIVAIMETNPSILEVK
B2: FIP4 364-412 (pGADGH/FIP4 364-412) (domain or fragment, UniProt Q86YS3 364-412)
chain: LKSKLKQENTQLVHRVHELEEMVKDQETTAEQALEEEARRHREAYGKLE
B3: FIP4 364-519 (pGADGH/FIP4 364-519) (domain or fragment, UniProt Q86YS3 364-519)
chain: LKSKLKQENTQLVHRVHELEEMVKDQETTAEQALEEEARRHREAYGKLEREKATEVELLNARVQQLEEENTELRTTVTRLKSQTEKLDEERQRMSDRLEDTSLRLKDEMDLYKRMMDKLRQNRLEFQKEREATQELIEDLRKELEHLQMYKLDCER
B4: FIP4 L375P (pGADGH/FIP4 L375P) (protein, UniProt Q86YS3 1-637)
chain: MAGGAGWSGAPAALLRSVRRLREVFEVCGRDPDGFLRVERVAALGLRFGQGEEVEKLVKYLDPNDLGRINFKDFCRGVFAMKGCEELLKDVLSVESAGTLPCAPEIPDCVEQGSEVTGPTFADGELIPREPGFFPEDEEEAMTLAPPEGPQELYTDSPMESTQSLEGSVGSPAEKDGGLGGLFLPEDKSLVHTPSMTTSDLSTHSTTSLISNEEQFEDYGEGDDVDCAPSSPCPDDETRTNVYSDLGSSVSSSAGQTPRKMRHVYNSELLDVYCSQCCKKINLLNDLEARLKNLKANSPNRKISSTAFGRQLMHSSNFSSSNGSTEDLFRDSIDSCDNDITEKVSFLEKKVTELENDSLTNGDLKSKLKQENTQPVHRVHELEEMVKDQETTAEQALEEEARRHREAYGKLEREKATEVELLNARVQQLEEENTELRTTVTRLKSQTEKLDEERQRMSDRLEDTSLRLKDEMDLYKRMMDKLRQNRLEFQKEREATQELIEDLRKELEHLQMYKLDCERPGRGRSASSGLGEFNARAREVELEHEVKRLKQENYKLRDQNDDLNGQILSLSLYEAKNLFAAQTKAQSLAAEIDTASRDELMEALKEQEEINFRLRQYMDKIILAILDHNPSILEIKH
B5: FIP4 L487P (pGADGH/FIP4 L487P) (protein, UniProt Q86YS3 1-637)
chain: B4 chain with P375L, L487P
B6: FIP4 A495P (pGADGH/FIP4 A495P) (protein, UniProt Q86YS3 1-637)
chain: B4 chain with P375L, A495P
B7: FIP4 413-474 (pGADGH/FIP4 413-474) (domain or fragment, UniProt Q86YS3 413-474)
chain: REKATEVELLNARVQQLEEENTELRTTVTRLKSQTEKLDEERQRMSDRLEDTSLRLKDEMDL
B8: Rip11, pGADGH/Rip11 two-hybrid prey (protein, UniProt Q9BXF6 1-653)
chain: MALVRGAEPAAGPSRWLPTHVQVTVLRARGLRGKSSGAGSTSDAYTVIQVGREKYSTSVVEKTHGCPEWREECSFELPPGALDGLLRAQEADAGPAPWAASSAAACELVLTTMHRSLIGVDKFLGQATVALDEVFGAGRAQHTQWYKLHSKPGKKEKERGEIEVTIQFTRNNLSASMFDLSMKDKPRSPFSKIRDKMKGKKKYDLESASAILPSSAIEDPDLGSLGKMGKAKGFFLRNKLRKSSLTQSNTSLGSDSTLSSASGSLAYQGPGAELLTRSPSRSSWLSTEGGRDSAQSPKLFTHKRTYSDEANQMRVAPPRALLDLQGHLDAASRSSLCVNGSHIYNEEPQGPVRHRSSISGSLPSSGSLQAVSSRFSEEGPRSTDDTWPRGSRSNSSSEAVLGQEELSAQAKVLAPGASHPGEEEGARLPEGKPVQVATPIVASSEAVAEKEGARKEERKPRMGLFHHHHQGLSRSELGRRSSLGEKGGPILGASPHHSSSGEEKAKSSWFGLREAKDPTQKPSPHPVKPLSAAPVEGSPDRKQSRSSLSIALSSGLEKLKTVTSGSIQPVTQAPQAGQMVDTKRLKDSAVLDQSAKYYHLTHDELISLLLQRERELSQRDEHVQELESYIDRLLVRIMETSPTLLQIPPGPPK
B9: FIP4 475-519 (pGADGH/FIP4 475-519) (domain or fragment, UniProt Q86YS3 475-519)
chain: YKRMMDKLRQNRLEFQKEREATQELIEDLRKELEHLQMYKLDCER

Protein sequences, listed by entry. Tags and fused reporters are not part of them.
UniProt Q99816: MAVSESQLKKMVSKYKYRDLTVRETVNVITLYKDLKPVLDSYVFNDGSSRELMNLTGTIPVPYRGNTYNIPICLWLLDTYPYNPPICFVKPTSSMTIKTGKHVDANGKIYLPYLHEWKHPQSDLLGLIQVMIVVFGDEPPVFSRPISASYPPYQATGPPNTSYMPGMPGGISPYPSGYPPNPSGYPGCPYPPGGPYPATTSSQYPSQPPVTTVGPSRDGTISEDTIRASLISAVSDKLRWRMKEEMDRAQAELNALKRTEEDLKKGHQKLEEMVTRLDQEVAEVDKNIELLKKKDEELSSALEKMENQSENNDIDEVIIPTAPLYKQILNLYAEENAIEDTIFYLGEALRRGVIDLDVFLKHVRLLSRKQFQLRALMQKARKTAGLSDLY

Substitutions are numbered along the chain they refer to. Numbers in names are those of the source. These are yes or no findings as the source states them, for the method shown. Some entries that bind do so weakly or less than the wild type.

This experiment has as its target TSG101 (tumor susceptibility gene 101), pVJL10-TSG101 two-hybrid bait (UniProt Q99816). Kind of experiment: two-hybrid; pVJL10 (bait) and pGADGH (prey) constructs co-transformed into S. cerevisiae L40; growth on medium lacking tryptophan, leucine and histidine with 1 mM 3-AT, 30°C.
In the case of B1, the binding entry is recorded as “binds”.

Consider B2, for which the binding entry is reported as “no binding”.

In the case of B3, the binding entry is “binds”.

As for B4, the binding entry is recorded as “binds”.

With B5, the binding entry is reported as “no binding”.

B6: the binding result is listed as “no binding”.

Consider B7, for which the binding entry was “no binding”.

Take B8: the binding result was “no binding”.

As to B9, the binding entry is reported as “no binding”.

The values are drawn from publication PMC3279423.
